In the supplement of paper PMC3334620:
In all, about 33,000 sequences were measured (“E-score (-0.5 to 0.5)”: median about -0.056, highest 2% from about 0.38 on). Some of the results follow.

Target: Stb4 (UniProt P50104)
Assay: PBM E-score (8-mer binding enrichment) (E-score (-0.5 to 0.5)); higher = stronger / more preferred TF binding; most listed sequences are background and not binding sites
Details: protein concentration: 200 nM; construct: GST-DNA-binding domain
Outline: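 Yeast transcription factors, full-length or as DNA-binding domains, were expressed with a GST tag using PURExpress in vitro transcription/translation. At about 100-200 nM they were applied to universal all-10-mer Agilent arrays, double-stranded by primer extension on fresh or once-stripped slides. Fluorescent anti-GST detected bound protein, and masliner normalised the scans. E-scores for ungapped eight-base words, pooled with reverse complements, came from the Universal PBM Analysis Suite.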

Sequence | PBM E-score
ATTTGCGC | -0.0378
ATGATCCA | -0.032
ACTACGTA | -0.0935
ACACCATA | -0.025
CCCATCTA | -0.134
GCGTTTGA | -0.223
AATATTGT | 0.0146
AGCATATC | 0.136
TAACCATA | -0.19
AATCTAAC | 0.0435
CCAACATC | 0.145
ACACGTCT | -0.0819
AAACGAGC | -0.153
CTACACCA | -0.22
ATTCACCA | -0.00837
CTTGTACA | -0.0352
AGTTTAAT | -0.111
AATCTAAG | -0.107
TCTTGGCA | -0.134
AAACCGCT | -0.0918
CCTGAGCC | -0.149
ACATGGTC | -0.193
AACGACAG | -0.329
GACGCCAA | -0.155
GAAGAGTA | 0.0567

Sequence | PBM E-score
CCAAGCTA | -0.215
AAATAGAG | 0.0304
CGGGAACA | 0.374
CGTTCTGC | 0.0264
ACGTGTGG | -0.223
CTCGGCAC | 0.451
AGTTGTGG | -0.214
ACCAAGCC | -0.139
AAGGCTAC | -0.0344
CCCAGAAA | 0.0332
TAGCCGGA | 0.384
GGGCAAAC | 0.0685
ACCCTGCC | 0.0104
GGCTCGCA | -0.0748
GCACAATA | -0.206
ATTGGAAG | -0.0546
GATGCGAA | -0.0357
ATGTATCC | 0.237
CCGATTTA | 0.352
ACCTAAGA | -0.255
AGGAATAA | -0.145
ACAAATCT | -0.0774
ATACCATG | -0.0942
GATCAAGC | -0.0193
AGGGGTGG | 0.0122

Sequence | PBM E-score
CAAGACTG | -0.128
CACACGTG | -0.151
GAGCACCA | -0.18
CCGCCAAG | -0.059
CATCCGTA | 0.329
CGCCTGGC | -0.132
ACAAGACG | -0.142
TGTCGAAA | -0.175
CGAACTGC | 0.0971
CGACTTAA | -0.0314
AGAAACTG | -0.0995
CTCCTGCC | -0.00319
GGCAATAA | 0.0285
ATCTAGTG | -0.271
AGTAAGGG | 0.0462
CAGATTGA | 0.0111
GGTGGAGA | -0.201
CAATAGTG | 0.11
CTGGTGAC | -0.143
GGAAAGCA | 0.195
AATCTCCG | 0.322
TGCCTGAA | -0.178
CTCGGCCC | 0.343
CTCCGATC | 0.229
ACTCACAG | -0.294

Sequence | PBM E-score
AGGAATAG | -0.0913
CATTTCAA | -0.252
GAGGCATA | 0.0573
GCTGGAAA | -0.0832
ACTACTGA | -0.177
GAAGGTGA | 0.174
AAAACTTC | 0.0195
GGGATGAA | 0.0679
AGTGCTTC | 0.0383
AGCATTAC | -0.028
ACTGCCGG | 0.302
AAAGTATC | 0.172
ATAAACCA | -0.0367
ATCGCCTC | -0.157
AGTAACAT | 0.0195
AGACGTAG | -0.274
ATGGACGC | -0.0281
AGGGCACA | -0.19
GATCCTCA | 0.114
CAGTCTCA | -0.134
ATGCCAGC | -0.183
GGGATCCC | 0.23
AGCATGAT | -0.168
AGCTGACC | 0.0118
CGCGAACG | 0.0891

Sequence | PBM E-score
AAACGATC | -0.099
CGGCCTCC | 0.188
GAATAGGC | 0.0273
ACCTACGC | 0.0721
AAGGCCGA | 0.323
AGATTGAA | -0.0594
TCTCCGAA | 0.384
AACATACC | 0.119
ACAGGATA | -0.0926
TCATACCA | -0.133
GCGGTAAA | 0.188
ATACCTCC | -0.0529
ACGCTCCA | -0.0409
ACCTCCCC | 0.148
CCCGCCCG | 0.324
GCGACAAA | -0.0477
ACACTGAA | -0.00995
ATCTCAAA | -0.0585
GAACTGCA | -0.042
GATATCAA | -0.0174
CAAGACTA | -0.254
CATGGGAG | -0.182
TGTGGCAA | 0.022
GACTCCAA | -0.225
GCTACAGA | -0.0933

Sequence | PBM E-score
CCTGACCA | -0.209
CGCGGTAG | 0.0883
CAGACTTA | -0.315
ATATTAAC | 0.129
ATAACAAC | -0.0405
GCTCGTTA | -0.0794
CCTAACTC | -0.0754
CAAACGTC | -0.132
CTCTGCCA | -0.229
GCATACCC | 0.14
CTCGGACA | 0.366
ATTGTCTA | -0.0114
ATCTGATA | -0.0898
GCAATCGC | -0.111
AATGGCTC | -0.131
CGTAGGCA | -0.155
CTAATTGA | 0.00327
CCACAATA | 0.0305
TGATACCA | -0.0462
AGACAAGC | -0.115
CTTCGGAC | 0.386
AAACGCTC | 0.051
CGTAGCAC | -0.154
TCGATGCA | -0.104
AATTGGGT | -0.119

Sequence | PBM E-score
GAGAGATC | -0.0968
AAATCGAC | -0.102
ATCGCCCA | -0.143
CTGACGTC | -0.271
ATGGATTA | -0.303
ACATGGCT | -0.0761
AGTTGGTG | -0.0868
CCTCATAA | -0.183
ACAACCAC | 0.0252
CCACCGGA | 0.378
GCGGCGAC | 0.149
ATCATTGC | -0.205
CCTCGCAC | -0.0845
TCTGACCA | -0.24
AGCGCTCG | -0.0312
ACTCTGGG | -0.257
AGCCGGCG | 0.325
TCCGTAAA | 0.274
GTAGAGCA | -0.291
ACACGACA | -0.232
ACAACGAT | 0.00979
CCCTCGGA | 0.464
